# Results from PubChem BioAssay AID1460 (National Center for Advancing Translational Sciences (NCATS), 2008).
# Hit rate of the full screen: of about 270,000 compounds, about 5,800 (2.1%) were called active. The shares of active, inactive and inconclusive entries below differ from those in the screen. Calls come from the whole dose curve; as a rule, active = well fitted inhibition curve with a large enough effect; inconclusive = small, poorly fitted or top-dose-only effect; inactive = flat fitted curve, though single readings scatter. Potencies beside an inconclusive call are fits to weak or partial responses and may not hold up.
# Target: Microtubule-associated protein tau (Homo sapiens) (UniProt P10636)
# Chain of UniProt P10636 (P10636 whole entry, looked up): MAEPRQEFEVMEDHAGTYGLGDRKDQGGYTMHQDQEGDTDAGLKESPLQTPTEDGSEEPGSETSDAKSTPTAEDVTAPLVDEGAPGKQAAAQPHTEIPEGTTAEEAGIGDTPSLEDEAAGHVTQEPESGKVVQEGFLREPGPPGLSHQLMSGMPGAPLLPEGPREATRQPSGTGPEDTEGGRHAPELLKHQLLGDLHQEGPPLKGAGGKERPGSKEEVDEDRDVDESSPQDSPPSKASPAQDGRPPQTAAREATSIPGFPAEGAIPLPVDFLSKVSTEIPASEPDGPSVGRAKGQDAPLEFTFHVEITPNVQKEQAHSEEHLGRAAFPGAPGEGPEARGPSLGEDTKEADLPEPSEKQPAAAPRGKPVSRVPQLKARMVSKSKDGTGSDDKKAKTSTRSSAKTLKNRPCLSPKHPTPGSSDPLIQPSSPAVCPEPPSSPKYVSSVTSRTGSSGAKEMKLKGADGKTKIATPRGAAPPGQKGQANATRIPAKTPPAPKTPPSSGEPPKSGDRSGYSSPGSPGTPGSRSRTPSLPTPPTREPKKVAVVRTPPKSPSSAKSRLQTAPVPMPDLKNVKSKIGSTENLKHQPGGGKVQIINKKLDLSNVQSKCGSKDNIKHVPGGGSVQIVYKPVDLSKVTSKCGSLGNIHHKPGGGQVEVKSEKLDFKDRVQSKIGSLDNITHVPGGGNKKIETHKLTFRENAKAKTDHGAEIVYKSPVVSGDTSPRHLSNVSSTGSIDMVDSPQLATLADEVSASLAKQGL
# Assay: qHTS for Inhibitors of Tau Fibril Formation, Thioflavin T Binding; note: nearly all actives have a fitted effect of over 55% in size
# Conditions: recombinant tau K18 P301L (four-repeat tau fragment), heparin-induced fibrillization, ThT fluorescence; series mostly up to 57.4 µM
# Summary of the method: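 Recombinant human tau K18 fragment […] carrying P301L, 15 uM unlabeled plus 0.24 uM Alexa 594-labeled, was fibrillized with 20 uM heparin in 100 mM sodium acetate pH 7 for 6 hr at 37 C; 30 uM ThT fluorescence read after 1 hr.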
# % is set by controls: 0 for no effect and ±100 for the full control effect; potency is the fitted concentration of half-maximal effect; tags give direction and shape of the fitted curve.
SMILES,Potency,"activity, negative = inhibition"
COCCn1c(-c2cccs2)csc1=Nc1cccnc1,"inconclusive: 28.2 µM [inhibitor, partial curve]",
Cc1ccc(OC(=O)c2oc3ccc(F)cc3c2C)c(C)c1,"inconclusive: 20 µM [inhibitor, single point]",
COC(=O)N/N=C/c1cccc(OC(=O)c2ccc3c(c2)OCO3)c1,"inconclusive: 0.447 µM [inhibitor, partial curve]",
Cc1ccc(-c2nn(-c3ccccc3)cc2C=O)o1,inactive,
Cc1cc(/C=C\c2ccccc2)nc2ccccc12,"inconclusive: 3.55 µM [inhibitor, full curve]",
COc1ccc(-c2[nH]ncc2CN2CCN(C3CCCCC3)C(=O)C2)cc1F,inactive,
CCOC(=O)Cn1c(=O)oc2cc(S(=O)(=O)Nc3ccc(F)cc3)ccc21,inactive,
CCOC(=O)C1CCCN(C(=O)CSCc2ccccc2)C1 (stereo unspecified),inactive,
COc1cc(C(c2c(C)[nH][nH]c2=O)c2c(C)[nH][nH]c2=O)cc([N+](=O)[O-])c1O,active: 14.1 µM,
CCc1nc(N(CC)CC)c2oc3ccccc3c2n1,"inconclusive: 15.8 µM [inhibitor, partial curve]",
Cc1cc(C(=O)N/N=C/c2ccc(-c3cccc(Br)c3)o2)n[nH]1,"inconclusive: 3.16 µM [inhibitor, full curve, poor fit]",
COc1ccc(CCNc2oc(COc3ccccc3Cl)nc2C#N)cc1OC,"inconclusive: 15.8 µM [inhibitor, partial curve]",
O=C(N/N=C/c1ccc2c(c1)OCO2)c1cc2ccccc2o1,"inconclusive: 0.251 µM [inhibitor, full curve]",
O=P(c1ccccc1)(c1ccccc1)c1nc(-c2ccc(Cl)cc2)oc1N1CCOCC1,"inconclusive: 17.8 µM [inhibitor, partial curve]",
CCOC(=O)c1ccc(NC(=O)c2c(NC(=O)CCC(=O)O)sc3c2CCCCC3)cc1,"inconclusive: 28.2 µM [inhibitor, single point]",
Cc1ccc(C)c(-c2csc(N)c2C(=O)OC(C)C)c1,"inconclusive: 15.8 µM [inhibitor, partial curve]",
O=C(OCc1cccc(F)c1)c1ccc2c(c1)-c1ccccc1C2=O,"inconclusive: 10 µM [inhibitor, partial curve, poor fit]",
O=c1cc(-c2ccc(O)cc2)oc2c(O)c(O)c(O)c(O)c12,active: 14.1 µM,
O=C(COc1ccc(Cl)cc1Cl)NC(=S)N1CCCc2ccccc21,"inconclusive: 17.8 µM [inhibitor, partial curve]",
O=C(Nc1ccccc1[N+](=O)[O-])c1cc2ccccc2nc1Cl,inactive,
Cc1[nH]nc2c1C1(CCN(Cc3ccccc3)CC1)C(C#N)=C(N)O2,"inconclusive: 20 µM [inhibitor, single point]",
O=C(NC1(C(F)(F)F)C(=O)Nc2c1c(=O)[nH]c(=O)n2CCc1ccccc1)c1ccc(Cl)cc1 (stereo unspecified),inactive,
O=C(NCc1ccccc1Cl)c1ccc2c(c1)nnn2C1CCCC1,inactive,
Cc1ccc(NC2=C(N3CCOCC3)C(=O)c3ccccc3C2=O)cc1,"inconclusive: 39.8 µM [inhibitor, single point]",

SMILES,Potency,"activity, negative = inhibition"
O=C(CC1SC(=O)N(c2ccccc2)C1=O)Nc1ccc(Br)cc1 (stereo unspecified),"inconclusive: 12.6 µM [inhibitor, partial curve]",
CCCCC1=CC2=C(c3ccco3)C(=O)C(C)(OC(=O)c3ccc(OC)cc3)C(=O)C2=CN1C1CCCCC1 (stereo unspecified),"inconclusive: 3.55 µM [inhibitor, partial curve]",
C/C(=N\NS(=O)(=O)c1ccc([N+](=O)[O-])cc1)c1cccs1,"inconclusive: 39.8 µM [inhibitor, single point]",
CC(Sc1nnc(-c2ccccc2)c(-c2ccccc2)n1)C(=O)N1CCc2ccccc21 (stereo unspecified),"inconclusive: 22.4 µM [inhibitor, single point]",
CSCCOC(=O)COc1ccc(/C=N/NC(=O)c2nn(C)cc2Cl)cc1,"inconclusive: 0.794 µM [inhibitor, full curve]",
COc1cc(NS(=O)(=O)c2ccc3c(c2)CC(=O)N3)cc(OC)c1OC,inactive,
Nc1nc(-c2ccccc2)cn1N,"inconclusive: 20 µM [inhibitor, partial curve]",
O=C(CCc1ccccc1)Nc1ccc(N2CCOCC2)cc1,"inconclusive: 14.1 µM [inhibitor, partial curve]",
COc1ccc(OC)c(NC2=NC3(CCCC3)N=C(N)N2)c1,inactive,
Fc1ccc(COc2cccc(-c3n[nH]c(=S)o3)c2)cc1,"inconclusive: 1 µM [inhibitor, full curve, poor fit]",
CC1Cc2c(-c3ccccc3)nc3c(c2CO1)CN(CCOc1ccccc1)CC3 (stereo unspecified),,inactive: -9.31% [at 11.5 µM]
CC(C)[C@H](NC(=O)c1ccccc1)C(=O)OCC(=O)c1ccc2c(c1)NC(=O)CO2,inactive,
c1ccc(Cn2nnc(CNc3ccccc3)c2-c2c(CNc3ccccc3)nnn2Cc2ccccc2)cc1,inactive,
COc1cc(NC(=O)c2cc3sccc3n2C)cc(OC)c1,"inconclusive: 25.1 µM [inhibitor, single point]",
O=C(c1cc([N+](=O)[O-])ccc1N1CCN(S(=O)(=O)c2ccc(Cl)c(Cl)c2)CC1)N1CCOCC1,"inconclusive: 44.7 µM [inhibitor, single point]",
S=c1[nH]nc(-c2cccc(Br)c2)o1,inactive,
O=C(NCc1ccccn1)c1ccc(Cl)cc1Cl,inactive,
COc1ccc(CCNc2oc(-c3ccco3)nc2C#N)cc1,"inconclusive: 28.2 µM [inhibitor, partial curve]",
CCOc1ccc(OCCCCOc2ccccc2C(C)=O)cc1,"inconclusive: 17.8 µM [inhibitor, partial curve]",
CC1=Nc2cc(C(=O)NC3CCCCC3)ccc2Sc2ccc(Cl)cc21,inactive,
Cc1ccc(Cl)cc1NC(=O)c1ccc(NC(=O)N2CCSc3ncccc32)cc1,"inconclusive: 39.8 µM [inhibitor, single point]",
COc1ccccc1C(=O)n1nc(-c2cccnc2)nc1NCc1ccccc1,"inconclusive: 12.6 µM [inhibitor, partial curve]",
Cc1ccc(OCC(=O)Nc2nnc(SCc3cc(=O)c4ccccc4[nH]3)s2)cc1C,inactive,
COC(=O)c1ccc(N2CCN(C)CC2)c(NC(=O)c2cccnc2)c1,inactive,

SMILES,Potency,"activity, negative = inhibition"
Nc1n[nH]c(-c2cccc([N+](=O)[O-])c2)n1,"inconclusive: 39.8 µM [inhibitor, single point]",
O=C(CCN1CCN(c2ccccc2)CC1)Nc1ccc2c(c1)OCO2,"inconclusive: 12.6 µM [inhibitor, partial curve, poor fit]",
COc1ccc(N2CCN(c3ccc([N+](=O)[O-])cc3Cl)CC2)cc1,"inconclusive: 2 µM [inhibitor, full curve]",
O=C(CCCc1ccccc1)NC1CC(=O)N(c2ccc(Cl)cc2)C1 (stereo unspecified),inactive,
CC1=C(c2ccc(C(C)C)cc2)S(=O)(=O)N=C1N1CCN(c2ccc(F)cc2)CC1,"inconclusive: 14.1 µM [inhibitor, single point]",
COc1ncnc2c1oc1nc(CC(C)C)c3c(c12)CCCC3,inactive,
O=C(Oc1c(CN2CCOCC2)cc(Cl)c2cccnc12)c1ccc(F)cc1,inactive,
CCOc1ccc(Nc2nc(N)nc(CSC(=S)N3CCN(c4ccccc4)CC3)n2)cc1,"inconclusive: 7.94 µM [inhibitor, partial curve]",
COc1ccccc1CNC(=O)CSc1nn2c(=O)c(C(C)(C)C)nnc2s1,"inconclusive: 35.5 µM [inhibitor, single point]",
COc1cccc(NC(=O)Nc2ccc3nc(N4CCN(C)CC4)cc(C)c3c2)c1,"inconclusive: 17.8 µM [inhibitor, partial curve]",
CN(C)c1ccc(-c2nccc(NCCN3CCOCC3)n2)cc1,"inconclusive: 11.2 µM [inhibitor, partial curve]",
COc1ccc(NC(=O)C2CCN(S(=O)(=O)c3cc(-c4noc(C)n4)ccc3C)CC2)cc1,inactive,
S=C1NNC2(NN1)C1CC3CC(C1)CC2C3,"inconclusive: 14.1 µM [inhibitor, partial curve]",
CN(C)S(=O)(=O)c1ccc(C(=O)NCc2ccc3[nH]c4c(c3c2)CCCC4)cc1,"inconclusive: 10 µM [inhibitor, partial curve]",
CCOC(=O)c1c(C)[nH]c(C)c1C(=O)CN1C(=O)NC(CC(C)C)C1=O (stereo unspecified),inactive,
CCN1CCN(c2cc(C)c3cc(NC(=O)c4cnccn4)ccc3n2)CC1,"inconclusive: 17.8 µM [inhibitor, partial curve]",
O=[N+]([O-])c1ccc(SCc2c(F)cccc2Cl)nc1,"inconclusive: 7.94 µM [inhibitor, partial curve, poor fit]",
Cc1cc(N2CCCCC2)nc2ccc(NC(=O)/C=C/c3ccc(OCCC(C)C)cc3)cc12,"inconclusive: 2.51 µM [inhibitor, full curve]",
Cc1ccc(Cn2cnc3sc4c(c3c2=O)CCC4)c(C)c1,"inconclusive: 35.5 µM [inhibitor, single point]",
COc1ccc(-c2cc(=O)c3ccc(F)cc3[nH]2)cc1,inactive,
CCc1cc(C(=O)c2ccc(C)cc2)c(NC(=O)CCl)s1,"inconclusive: 17.8 µM [inhibitor, partial curve]",
CCC(=O)c1ccc(OCC(=O)Nc2nn3cnnc3s2)cc1,"inconclusive: 3.16 µM [inhibitor, full curve]",
Cc1cc(C)nc(SCC(=O)c2ccc(O)cc2O)n1,inactive,
